This assay has as its target T1, Siglec-10Fc (human, UniProt Q96LC7 17-546).
T1 construct: not shown: Fc part of Siglec-10Fc
T1 sequence (looked up): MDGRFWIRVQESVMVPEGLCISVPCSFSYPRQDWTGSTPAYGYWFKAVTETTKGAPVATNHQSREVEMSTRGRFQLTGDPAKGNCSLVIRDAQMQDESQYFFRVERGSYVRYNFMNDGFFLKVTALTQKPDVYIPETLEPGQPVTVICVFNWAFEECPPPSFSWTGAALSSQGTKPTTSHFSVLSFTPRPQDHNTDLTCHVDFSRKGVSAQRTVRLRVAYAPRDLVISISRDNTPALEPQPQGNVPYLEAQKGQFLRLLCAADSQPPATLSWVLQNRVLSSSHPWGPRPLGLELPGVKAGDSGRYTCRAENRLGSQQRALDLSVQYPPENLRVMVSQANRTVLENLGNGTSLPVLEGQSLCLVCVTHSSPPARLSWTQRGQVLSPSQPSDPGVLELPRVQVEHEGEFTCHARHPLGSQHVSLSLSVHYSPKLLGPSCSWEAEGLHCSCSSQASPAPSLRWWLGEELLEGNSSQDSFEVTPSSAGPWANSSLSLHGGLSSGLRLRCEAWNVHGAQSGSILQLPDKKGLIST
Briefly: Biacore (SPR): CD24Fc immobilized on the chip, Siglec-10Fc injected at different concentrations (0 to about 9x10-7 M). Steady-state response in RU plotted against Siglec 10 concentration. (Surface plasmon resonance follows binding to a sensor surface in real time, without labels.)

B1: CD24Fc fusion protein (mature human CD24 lacking the final polymorphic amino acid, fused to human IgG1 Fc), processed version (Fc fusion)
chain: SETTTGTSSNSSQSTSNSGLAPNPTNATT[human IgG1 Fc skipped]
notes: also called CD24Ig; CD24IgG1
By Kd is commonly meant the free concentration of one partner at which half of the binding sites on the other are occupied at equilibrium, for simple one-to-one binding. Lower therefore signals a tighter complex. For the molecule B1, the equilibrium dissociation constant (Kd) was found to be 162 nM.
